# Results from PubChem BioAssay AID1347165 (National Center for Advancing Translational Sciences (NCATS), 2019).
# About 5,700 (2.6%) of roughly 220,000 compounds were called active. The shares of active, inactive and inconclusive entries below differ from those in the screen. The call rests on the fitted dose curve; in most records, active means well fitted inhibition curve with a large enough effect; inconclusive means small, poorly fitted or top-dose-only effect; inactive means no such curve, though single readings can be large or run the other way. A potency beside an inconclusive call is a rough fit, not a confirmed value.
# Molecular target: Lysine-specific demethylase 5B (Homo sapiens) (UniProt Q9UGL1)
# Test: Primary screen for KDM5B Histone Demethylases FDH-coupled qHTS; further: nearly all actives have a fitted effect of over 70% in size; on activity change, negative = inhibition: 0% is about no effect
# Settings: FDH-coupled NADH fluorescence (FDH is formaldehyde dehydrogenase); activity change, negative = inhibition: at 57.7 µM (top of the series) unless noted
# Method in brief: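 KDM5BΔAP (200 nM final) in 50 mM HEPES pH 7.5, 0.01% Tween-20 was preincubated 10 min at RT with compound over a concentration range. Substrate mix (H3K4me3 12.5 µM, α-KG 25 µM, Fe²⁺, ascorbate, NAD⁺, FDH) was added, and NADH fluorescence change over 30 min gave dose-response curves.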
# Potency means the concentration at half of the fitted maximal effect; tags describe the fitted curve by direction and shape.
# Sequence of UniProt Q9UGL1 (Q9UGL1 whole entry, looked up): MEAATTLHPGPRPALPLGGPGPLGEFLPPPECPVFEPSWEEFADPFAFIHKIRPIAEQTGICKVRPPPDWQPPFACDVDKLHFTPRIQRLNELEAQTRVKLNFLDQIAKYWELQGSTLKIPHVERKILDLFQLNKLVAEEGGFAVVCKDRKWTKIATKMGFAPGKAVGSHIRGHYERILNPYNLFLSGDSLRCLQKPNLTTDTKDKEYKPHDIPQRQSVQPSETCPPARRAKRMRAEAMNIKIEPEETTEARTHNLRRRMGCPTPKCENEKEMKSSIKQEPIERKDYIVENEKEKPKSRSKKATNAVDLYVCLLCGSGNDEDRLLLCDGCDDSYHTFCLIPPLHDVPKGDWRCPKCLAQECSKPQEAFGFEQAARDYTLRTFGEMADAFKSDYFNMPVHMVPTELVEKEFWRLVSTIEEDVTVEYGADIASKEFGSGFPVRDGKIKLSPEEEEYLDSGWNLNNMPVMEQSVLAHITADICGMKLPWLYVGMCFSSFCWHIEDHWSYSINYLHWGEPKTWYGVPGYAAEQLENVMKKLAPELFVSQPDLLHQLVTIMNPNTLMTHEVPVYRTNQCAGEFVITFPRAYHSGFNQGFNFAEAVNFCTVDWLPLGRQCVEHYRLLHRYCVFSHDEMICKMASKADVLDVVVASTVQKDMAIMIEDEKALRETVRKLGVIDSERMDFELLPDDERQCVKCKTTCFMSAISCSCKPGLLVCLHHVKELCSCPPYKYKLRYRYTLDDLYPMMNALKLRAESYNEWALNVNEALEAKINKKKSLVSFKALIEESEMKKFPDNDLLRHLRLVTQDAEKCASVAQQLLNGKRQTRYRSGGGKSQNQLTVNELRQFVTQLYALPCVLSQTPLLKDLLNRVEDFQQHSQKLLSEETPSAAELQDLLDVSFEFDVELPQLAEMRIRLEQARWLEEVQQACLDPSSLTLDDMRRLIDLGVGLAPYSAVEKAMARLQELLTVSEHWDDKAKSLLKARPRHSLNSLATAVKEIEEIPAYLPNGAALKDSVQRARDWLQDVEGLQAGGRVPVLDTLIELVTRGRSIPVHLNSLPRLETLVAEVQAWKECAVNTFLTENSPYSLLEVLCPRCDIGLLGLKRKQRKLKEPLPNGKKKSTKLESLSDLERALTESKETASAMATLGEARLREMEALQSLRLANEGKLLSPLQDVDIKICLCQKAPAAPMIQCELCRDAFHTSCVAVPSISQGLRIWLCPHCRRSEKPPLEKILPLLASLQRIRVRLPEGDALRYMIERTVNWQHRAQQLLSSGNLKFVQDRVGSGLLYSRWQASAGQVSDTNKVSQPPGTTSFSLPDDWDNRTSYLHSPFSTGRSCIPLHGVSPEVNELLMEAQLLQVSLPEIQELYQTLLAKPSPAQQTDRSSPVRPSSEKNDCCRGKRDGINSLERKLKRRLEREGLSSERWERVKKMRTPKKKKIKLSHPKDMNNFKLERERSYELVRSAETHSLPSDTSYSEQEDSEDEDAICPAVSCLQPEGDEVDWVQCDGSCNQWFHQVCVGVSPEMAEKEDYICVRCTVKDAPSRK
SMILES,"activity change, negative = inhibition",Potency
CC(CCc1ccccc1)NC(=O)CN1C(=O)NC(c2ccc(Cl)cc2)C2=C1COC2=O (configuration not stated),inactive: 1.98%,
C#CCOc1ccc(-c2nnc(Nc3cccc(C)c3)c3ccccc23)cc1,,"inconclusive: 25.1 µM [inhibitor, partial curve, poor fit]"
CCC1Oc2ccc(NC(=O)c3ccc(F)cc3F)cc2CN(Cc2ccc3c(c2)OCO3)C1=O (configuration not stated),,"inconclusive: 28.2 µM [inhibitor, partial curve]"
COCC(=O)N1CCc2nc(C)nc(-c3ccc(OC)cc3)c2C1,,active: 31.6 µM
Cc1c(-c2cccs2)nc2ccccc2c1-c1ccccc1,,"inconclusive: 31.6 µM [inhibitor, single point]"
CN1c2cc(C(N)=O)ccc2C(=O)N2CCCCCC21 (configuration not stated),,"inconclusive: 25.1 µM [inhibitor, partial curve, poor fit]"
O=C(c1ccccc1)N1Cc2[nH]cnc2C[C@H]1c1nc(-c2ccncc2)no1,,"inconclusive: 22.4 µM [inhibitor, partial curve]"
Cc1nc2nc(NCc3ccc(Cl)cc3)[nH]n2c(=O)c1CCO,,"inconclusive: 35.5 µM [inhibitor, single point]"
COc1ccc(CN[C@@H]2C=C[C@@H](c3c(C)nn(-c4cccc(Br)c4)c3C)C2)cc1,,"inconclusive: 14.1 µM [inhibitor, partial curve, poor fit]"
Cc1cccc2nnc(N3CCN(C(=O)CCc4ccccc4)CC3)n12,,active: 25.1 µM
Cc1oc2cc3oc(=O)c(CCC(=O)N(C)CC(=O)O)c(C)c3cc2c1C,,"inconclusive: 39.8 µM [inhibitor, single point]"
COc1ccc(-c2ccc(=O)n(CC(=O)Nc3ccc(C)cc3C)n2)cc1,,"inconclusive: 39.8 µM [inhibitor, single point]"
COc1ccccc1CNC(=O)c1cc2c(s1)CCN(C(=O)c1ccccc1)C2,,"inconclusive: 39.8 µM [inhibitor, partial curve, poor fit]"
COc1ccc2c(c1OC)C(=O)N1C2SC(C)(C)[C@H]1C(=O)NCCCOC(C)C (some centres not stated),,"inconclusive: 25.1 µM [inhibitor, partial curve, poor fit]"
Cc1ccc(-c2ccc(CCC(=O)O)n2-c2cccc(O)c2)cc1,,"inconclusive: 25.1 µM [inhibitor, partial curve, poor fit]"
CC(=O)c1ccc(NC(=O)C2=CC(c3ccc4c(c3)OCO4)=NS(=O)(=O)N2C)cc1,,"inconclusive: 14.1 µM [inhibitor, partial curve, poor fit]"
O=C(CCc1ccccc1)N1CCN(c2cc(-c3cccs3)[nH]n2)CC1,,"inconclusive: 22.4 µM [inhibitor, single point]"
